Assay results taken from the supplement of paper PMC4604168 (melanoma cell lines).
This is one part of the list. Many values rest on one well or one pass, so single values are uncertain.

system: COLO800; experiment: cell count relative to DMSO control; melanoma cells; higher = more viable cells; settings: library dose: standard library concentration; 72 h
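Note: cells treated in 1,536-well plates, then fixed and DAPI-stained, with nuclei counted from automated high-throughput microscope images.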

SMILES | cell count
C[C@]1(O)C[C@@H](c2nc(-c3ccc4ccc(-c5ccccc5)nc4c3)c3c(N)nccn32)C1 + Nc1ncn([C@H]2C[C@H](O)[C@@H](CO)O2)c(=O)n1 [decitabine] (first compound 2 µM, partner dose 0.5 µM) | 44.1%
COc1cc([C@@H]2c3cc4c(cc3[C@@H](O[C@@H]3O[C@@H]5CO[C@@H](C)O[C@H]5[C@H](O)[C@H]3O)[C@H]3COC(=O)[C@H]23)OCO4)cc(OC)c1O [etoposide] + O=C(Nc1ccccc1)c1cc([N+](=O)[O-])ccc1Cl [GW9662] (first compound 0.1 µM, partner dose 10 µM) | 64%
CCN(CC)CCNC(=O)c1c(C)[nH]c(/C=C2\C(=O)Nc3ccc(F)cc32)c1C [sunitinib] + NC1(c2ccc(-c3nc4ccn5c(=O)[nH]nc5c4cc3-c3ccccc3)cc2)CCC1 [MK2206] (first compound 2 µM, partner dose 2 µM) | 43.2%
Cn1cnc2c(F)c(Nc3ccc(Br)cc3Cl)c(C(=O)NOCCO)cc21 [selumetinib] + COCC[n+]1c2c(n(Cc3cnccn3)c1C)C(=O)c1ccccc1C2=O [YM155] (first compound 0.075 µM, partner dose 0.002 µM) | 46.1%
Cn1cnc2c(F)c(Nc3ccc(Br)cc3Cl)c(C(=O)NOCCO)cc21 [selumetinib] + NC1(c2ccc(-c3nc4ccn5c(=O)[nH]nc5c4cc3-c3ccccc3)cc2)CCC1 [MK2206] (first compound 0.075 µM, partner dose 2 µM) | 39.5%
COc1cc([C@@H]2c3cc4c(cc3[C@@H](O[C@@H]3O[C@@H]5CO[C@@H](C)O[C@H]5[C@H](O)[C@H]3O)[C@H]3COC(=O)[C@H]23)OCO4)cc(OC)c1O [etoposide] + COc1cc(Nc2ncc(F)c(Nc3ccc4c(n3)NC(=O)C(C)(C)O4)n2)cc(OC)c1OC [Tamatinib] (first compound 0.1 µM, partner dose 2 µM) | 45.8%
Cn1cnc2c(F)c(Nc3ccc(Br)cc3Cl)c(C(=O)NOCCO)cc21 [selumetinib] + CC(C)C[C@H](NC(=O)[C@H](Cc1ccccc1)NC(=O)c1cnccn1)B(O)O [Bortezomib] (first compound 0.075 µM, partner dose 0.005 µM) | 76.9%
COc1cc([C@@H]2c3cc4c(cc3[C@@H](O[C@@H]3O[C@@H]5CO[C@@H](C)O[C@H]5[C@H](O)[C@H]3O)[C@H]3COC(=O)[C@H]23)OCO4)cc(OC)c1O [etoposide] + Oc1nc(-c2ccc(C(F)(F)F)cc2)nc2c1CSCC2 [XAV939] (first compound 0.1 µM, partner dose 10 µM) | 52.7%
COc1cc([C@@H]2c3cc4c(cc3[C@@H](O[C@@H]3O[C@@H]5CO[C@@H](C)O[C@H]5[C@H](O)[C@H]3O)[C@H]3COC(=O)[C@H]23)OCO4)cc(OC)c1O [etoposide] + COc1ccc(C2=N[C@@H](c3ccc(Cl)cc3)[C@@H](c3ccc(Cl)cc3)N2C(=O)N2CCNC(=O)C2)c(OC(C)C)c1 [Nutlin-3] (first compound 0.1 µM, partner dose 0.5 µM) | 106%
Cn1cnc2c(F)c(Nc3ccc(Br)cc3Cl)c(C(=O)NOCCO)cc21 [selumetinib] + COc1ccc(COc2ccc(Cc3cnc(N)nc3N)cc2OC)cc1 [GW2580] (first compound 0.075 µM, partner dose 5 µM) | 68.5%
C[C@]1(O)C[C@@H](c2nc(-c3ccc4ccc(-c5ccccc5)nc4c3)c3c(N)nccn32)C1 + Cn1c(=O)n(-c2ccc(C(C)(C)C#N)cc2)c2c3cc(-c4cnc5ccccc5c4)ccc3ncc21 [NVP-BEZ235] (first compound 2 µM, partner dose 0.02 µM) | 40.5%
Cn1cnc2c(F)c(Nc3ccc(Br)cc3Cl)c(C(=O)NOCCO)cc21 [selumetinib] + O=C(O)c1ccc(-c2c[nH]c3ncc(-c4ccccc4)cc23)cc1C1CCCC1 [GSK650394] (first compound 0.075 µM, partner dose 0.8 µM) | 61%
COc1cc([C@@H]2c3cc4c(cc3[C@@H](O[C@@H]3O[C@@H]5CO[C@@H](C)O[C@H]5[C@H](O)[C@H]3O)[C@H]3COC(=O)[C@H]23)OCO4)cc(OC)c1O [etoposide] + COc1ccc2c(c1)CCC1C2CCC2(C)C(NCCCCCCN3C(=O)C=CC3=O)CCC12 [U73122] (first compound 0.1 µM, partner dose 2 µM) | 90.7%
